Results published in PubChem BioAssay AID1508642 (National Center for Advancing Translational Sciences (NCATS), 2021).
The campaign covered roughly 43,000 compounds. About 200 (0.47%) were called active. About 12% were inconclusive and are not listed. The call rests on the fitted dose curve; in most records, active means well fitted cell-killing curve with a large enough effect; inconclusive means small, poorly fitted or top-dose-only effect, or effect the other way; inactive means flat fitted curve, though single readings scatter. Some of the results follow.

Assay: Cell viability qHTS assay in S16 Pmp22-F2sN cells; further: nearly all actives have a fitted effect of over 65% in size
Details: S16 Pmp22-F2sN Schwann cells viability, CellTiter-Glo, 24 h; series mostly up to 57.5 µM; activity change, negative = cytotoxicity: at the top concentration
Method in brief: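 Viability was measured by CellTiter-Glo luminescence (15 min, room temperature). This followed 24 h at 37 °C of compound exposure (23 nL pin transfer) in S16 Pmp22-F2sN Schwann cells, 500-1,000 per well.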
On the % scale 0 is the no-effect control and ±100 the full control effect.

| SMILES | activity change, negative = cytotoxicity |
| --- | --- |
| CSc1nc2c([nH]c3ccccc32)c(=O)n1-c1ccc(F)cc1 | inactive: 2.06% |
| CCc1ccc(NC(=O)c2ccc(CN3C(=O)C(C)=C(c4ccc(C)cc4)S3(=O)=O)cc2)cc1 | inactive: 0.95% |
| CCOc1ccc(-c2cc(C(F)(F)F)c(C#N)c(SCC(=O)Nc3ccccc3)n2)cc1 | inactive: 1.19% |
| O=C(Cn1cc(S(=O)(=O)Cc2ccc(F)cc2)c2ccccc21)NCc1ccccc1 | inactive: -5.17% |
| CCOc1ccccc1NC(=O)CSc1cc(=O)n(CC)c2ccccc12 | inactive: -11.5% |
| Cc1ccc(-c2nc3c(cnn3-c3ccccc3)c(=O)n2-c2ccc(Cl)cc2)cc1 | inactive: -20.1% |
| COc1cccc(OC)c1C(=O)Nc1ccc2c(c1)CCCN2S(=O)(=O)c1ccc(C)cc1 | inactive: -6.38% |
| O=C(COCc1cc(-c2ccco2)on1)Nc1ccc(OC(F)(F)F)cc1 | inactive: 4.72% |
| O=C(CNS(=O)(=O)c1ccc(Br)s1)N1CCN(c2ccccc2F)CC1 | inactive: 6.28% |
| Cc1nn(CC(=O)N2CCN(c3ccccc3)CC2)c(=O)c2cccn12 | inactive: 14% |
| Cc1ccc(-n2ncc3c(NCCC4=CCCCC4)ncnc32)cc1C | inactive: 0.104% |
| Cc1oc(-c2ccc(Cl)cc2)nc1Cn1c(=O)cc(-c2ccccc2)c2c(C)nn(C)c21 | inactive: -4.18% |
| NS(=O)(=O)c1ccc(CCNc2nc3c(-c4cccc(F)c4)nnn3c3ccc(Cl)cc23)cc1 | inactive: 20.7% |
| CCOc1ccccc1NC(=O)Cn1nnc2sc3c(c2c1=O)CCC(C(C)(C)C)C3 (centres undefined) | inactive: 1.4% |
| COc1ccc(NC(=O)Cn2cc(C(=O)C3CC3)c3ccccc32)cc1 | inactive: 5.12% |
| COC(=O)c1cc(NC(=O)CN(c2ccccc2)S(=O)(=O)N(C)C)ccc1Cl | inactive: 11.5% |
| Cc1cc(C)c(/C=C/c2onc(C)c2S(=O)(=O)N2CCC(C(=O)NCc3ccco3)CC2)c(C)c1 | inactive: -18.3% |
| CCOC(=O)N1CCN(C(=O)CN(c2ccc(C)cc2C)S(=O)(=O)c2ccccc2)CC1 | inactive: 14.1% |
| O=C(CN1C(=O)C2(SCC(=O)N2c2cccc(Cl)c2)c2ccccc21)NC1CCCCC1 (centres undefined) | inactive: -3.32% |
| Cc1ccc(CSc2nc3ccc(NC(=O)COc4ccccc4F)cc3s2)cc1 | inactive: 17% |

| SMILES | activity change, negative = cytotoxicity |
| --- | --- |
| O=C(CCCCn1c(=O)[nH]c2ccsc2c1=O)N1CCN(c2cccc(Cl)c2)CC1 | inactive: -17.7% |
| COc1ccc(Cl)cc1N(C)C(=O)Cn1cnc2sc(C)c(S(=O)(=O)N3CCN(c4ncccn4)CC3)c2c1=O | inactive: 8.95% |
| CCC(CC)C(=O)Nc1ccccc1C(=O)OCc1cc(=O)n2nc(C3CCCCC3)sc2n1 | inactive: 2.47% |
| CCOc1ccc(CNC(=O)Cn2ncc3c(=O)oc4ccc(C)cc4c32)cc1 | inactive: -0.501% |
| Cc1ccc(C)c(CN2C(=O)c3ccccc3S(=O)(=O)c3ccc(C(=O)N4CCOCC4)cc32)c1 | inactive: -18.6% |
| O=S(=O)(c1cccs1)N1CCN(c2ccc(Cl)cc2)CC1 | inactive: -2.51% |
| COc1ccc(C(=O)N2CCCCC2CCN2CCCCC2)cc1 (centres undefined) | inactive: 7.11% |
| COc1ccc(Cl)cc1NC(=O)[C@H]1O[C@@H]2OC(C)(C)O[C@@H]2[C@H]2OC(C)(C)O[C@H]21 | inactive: 11.2% |
| CCOc1ccccc1CNC(=O)CCCN1C(=O)CCn2nc(-c3cccn3C)cc21 | inactive: 6.06% |
| Cc1ccc(-c2cc(C(F)(F)F)n3nc(C(=O)Nc4ccc(C#N)cc4)cc3n2)cc1 | inactive: -0.467% |
| Cc1ccc(CNC(=O)C2CCN(S(=O)(=O)c3ccc4c(c3)oc(=O)n4C)CC2)cc1 | inactive: 7.64% |
| CCc1ccc(-n2nc(C)c3c(C)cc(=O)n(CC(=O)Nc4ccc(OC)c(OC)c4)c32)cc1 | inactive: -19.3% |
| Cc1cccc2sc(N3CCN(C(=O)c4ccco4)CC3)nc12 | inactive: -5.16% |
| Cc1cccc(S(=O)(=O)c2cn(Cc3ccccc3)c3cc(N4CCCC(C)C4)c(F)cc3c2=O)c1 (centres undefined) | inactive: 5.69% |
| CSc1nn(Cc2cccc(F)c2)c(N(C(C)=O)C(C)=O)c1S(=O)(=O)c1ccccc1 | inactive: 16.1% |
| COc1ccc(OC)c(CNCc2c(C(=O)O)n(Cc3ccccc3)c3cc(OC)ccc23)c1 | inactive: 12.2% |
| CCC(=O)N1CCc2cc(S(=O)(=O)NC(CC(C)C)C(=O)Nc3ccc(CC)cc3)ccc21 (centres undefined) | inactive: -11.6% |
| O=C(CN1N=C(c2ccc(Cl)cc2)CCC1=O)NCc1ccc(F)cc1 | inactive: -16% |
| Clc1ccc(CSc2nc(NCCc3ccccc3)c3ccccc3n2)cc1 | inactive: -4.77% |
| O=C(CC1NCCNC1=O)Nc1cccc(F)c1 (centres undefined) | inactive: 1.06% |

| SMILES | activity change, negative = cytotoxicity |
| --- | --- |
| Cc1ccc2ncc3c(-c4ccccc4)nn(CC(=O)NC4CCCCC4)c3c2c1 | inactive: -15.2% |
| COc1ccccc1N1CCN(CCCNC(=O)Cn2ncc3c([nH]c4ccccc43)c2=O)CC1 | inactive: 7.03% |
| COc1ccc(NC(=O)CSC2=Nc3ccccc3C3=NC(CCC(=O)NCc4ccco4)C(=O)N23)cc1 (centres undefined) | inactive: 0.758% |
| Cc1ccc(NC(=O)Cn2c(=O)oc3cc(S(=O)(=O)N4CCCC4)ccc32)cc1F | inactive: -5.94% |
| COc1cccc(C2C(C(=O)Nc3cccnc3)=C(C)Nc3nc(SCc4ccccc4)nn32)c1 (centres undefined) | inactive: 16% |
| CCOC(=O)c1ccc(NC(=O)C2CCCN(c3ncnc4onc(C)c34)C2)cc1 (centres undefined) | inactive: 3.75% |
| Cc1nc2ccc(S(=O)(=O)CCC(=O)Nc3ccccc3C)cc2s1 | inactive: -0.296% |
| COc1ccc(Nc2nnc(-c3ccc(C)c(S(N)(=O)=O)c3)c3ccccc23)cc1 | inactive: 17.3% |
| CC(=O)c1cccc(NC(=O)C2=CC(c3ccco3)=NS(=O)(=O)N2C)c1 | inactive: 5.89% |
| COc1ccc(CCNc2oc(COc3ccc(Cl)cc3)nc2C#N)cc1OC | inactive: -6.6% |
| COc1ccccc1CNC(=O)C(=O)NCC(c1ccc2c(c1)OCO2)N1CCOCC1 (centres undefined) | inactive: -15.8% |
| CCc1ccc(CNc2nc3nc(C)c(Cc4ccccc4)c(=O)n3[nH]2)cc1 | inactive: -0.428% |
| CCc1ccc(-c2nc(SCC(=O)NCCOC)c(-c3ccc(C)cc3)[nH]2)cc1 | inactive: 13.7% |
| CCOc1ccc(CNCCSc2nnnn2C)cc1OC | inactive: 17% |
| O=C(CS(=O)(=O)c1cccc2nsnc12)N1CCN(c2ccccc2)CC1 | inactive: 0.823% |
| Cc1c(-c2nnc(SCC(=O)Nc3ccc(Br)cc3)o2)nnn1-c1ccc(F)cc1 | inactive: 12.9% |
| O=C(Cn1c(=O)n(Cc2ccc(C(=O)NCc3ccc4c(c3)OCO4)cc2)c(=O)c2ccccc21)Nc1ccc(F)cc1F | inactive: 3% |
| COC(=O)c1ccn(-c2nc(-c3ccc(Cl)cc3)cc(C(F)(F)F)n2)n1 | inactive: -0.996% |
| COC(=O)c1ccccc1NC(=O)c1cn2c3c(ccc(Cl)c3c1=O)OC(C)C2 (centres undefined) | inactive: 5.1% |
